Some of the results follow.
Test system: S. aureus RN4220
Assay: growth inhibition call (relative growth <= 0.2)
Settings: 50 µM

Growth inhibition call, inactive:
Cc1ccc(S(=O)(=O)N(C)C[C@H]2OCCCC[C@@H](C)Oc3ccc(NC(=O)Nc4ccc(F)cc4)cc3C(=O)N([C@@H](C)CO)C[C@@H]2C)cc1
C[C@@H]1CN([C@@H](C)CO)C(=O)c2cc(NC(=O)Nc3ccc(F)cc3)ccc2O[C@@H]1CN(C)Cc1ccc(C(=O)Nc2ccccc2N)cc1
Cc1noc(C)c1S(=O)(=O)Nc1ccc2c(c1)C(=O)N([C@@H](C)CO)C[C@H](C)[C@@H](CN(C)S(=O)(=O)c1ccc(F)cc1)O2
C[C@@H]1CCCCO[C@@H](CN(C)C(=O)Nc2ccccc2)[C@@H](C)CN([C@@H](C)CO)C(=O)c2cc(NC(=O)Nc3ccccc3)ccc2O1
COc1ccc(NC(=O)N(C)C[C@@H]2Oc3ccc(NS(C)(=O)=O)cc3C(=O)N([C@H](C)CO)C[C@H]2C)cc1
COCC(=O)N1CC[C@@H]2N(S(C)(=O)=O)CC[C@@]2(C(=O)N2CCOCC2)CC1
C[C@@H]1CCCCO[C@@H](CN(C)CC2CCCCC2)[C@H](C)CN([C@H](C)CO)C(=O)c2cc(NS(=O)(=O)c3ccccc3)ccc2O1
CC(C)C(=O)NS(=O)(=O)c1ccc(N)cc1
C[C@@H]1CCCCO[C@@H](CN(C)Cc2ccc(C(F)(F)F)cc2)[C@H](C)CN([C@H](C)CO)C(=O)c2cc(NS(=O)(=O)c3ccc(F)cc3)ccc2O1
Cc1ccc(S(=O)(=O)Nc2ccc3c(c2)C(=O)N([C@@H](C)CO)C[C@H](C)[C@H](CN(C)CC2CCCCC2)OCCCC[C@@H](C)O3)cc1
CCCNC(=O)N1C[C@@H](O)COC[C@H]2O[C@@H](CC(=O)N3CCOCC3)CC[C@@H]21
CCOC(=O)[C@H](C(C)=O)[C@H]1CCS(=O)(=O)C1
O=C(Cn1ccc([N+](=O)[O-])n1)N1CCOCC1
C[C@H](CO)N1C[C@H](C)[C@@H](CN(C)Cc2ccccc2)Oc2ccc(NC(=O)Cn3cnnn3)cc2C1=O
Cc1noc(C)c1NC(=O)Nc1ccc2c(c1)CC(=O)N([C@H](C)CO)C[C@@H](C)[C@H](CN(C)Cc1ccc(C(=O)Nc3ccccc3N)cc1)O2
C[C@H](CO)N1C[C@H](C)[C@H](CN(C)C(=O)c2ccccc2)OCCCC[C@H](C)Oc2ccc(NC(=O)c3ccccc3)cc2C1=O
COc1ccc(CN(C)C[C@@H]2OCCCC[C@@H](C)Oc3ccc(NS(=O)(=O)c4ccc(OC)cc4)cc3C(=O)N([C@H](C)CO)C[C@H]2C)cc1
Cc1noc(C)c1S(=O)(=O)Nc1ccc2c(c1)CC(=O)N([C@H](C)CO)C[C@@H](C)[C@@H](CN(C)S(=O)(=O)c1ccc(Cl)cc1)O2
Cc1noc(C)c1NC(=O)Nc1ccc2c(c1)C(=O)N([C@@H](C)CO)C[C@H](C)[C@@H](CN(C)C(=O)C1CCCCC1)OCCCC[C@@H](C)O2
C=CCC[C@H](Cc1ccc(F)cc1)C(=O)O[C@@H](CNC(=O)[C@@H](CC=C)CC(=O)N[C@H](CO)Cc1ccccc1)c1ccccc1
O=C(NCc1cccc(F)c1)[C@@H]1[C@@H](CO)[C@@H]2Cn3c(cccc3=O)[C@H]1N2C(=O)c1cnccn1
COc1ccc(NC(=O)Nc2ccc3c(c2)[C@H]2C[C@H](CC(=O)NCC(F)(F)F)O[C@H](CO)[C@H]2O3)cc1
CO[C@H]1CN(C)C(=O)c2ccc(NC(=O)C3CC3)cc2OC[C@H](C)N(C(=O)Cc2ccccn2)C[C@@H]1C
C[C@@H]1CN([C@@H](C)CO)C(=O)c2cc(NC(=O)Cc3cn(C)c4ccccc34)ccc2O[C@H]1CN(C)Cc1ccc(-c2ccccc2)cc1
CC(C)C(C)C=CC(C)C1CCC2C3=CC=C4CC(O)CCC4(C)C3CCC21C (stereo not given)
C[C@@H]1CN([C@H](C)CO)C(=O)Cc2cc(NC(=O)CCCCCC(=O)Nc3ccccc3N)ccc2O[C@H]1CN(C)Cc1ccc(C(F)(F)F)cc1
COc1cccc(NC(=O)N2C[C@@H](O)COC[C@@H]3O[C@H](CC(=O)NCCCN4CCOCC4)CC[C@H]32)c1
C[C@@H](N)CCc1ccc(Br)cc1
Cc1ccc(S(=O)(=O)N[C@@H]2CC[C@@H](CC(=O)N3CCC(Cc4ccccc4)CC3)O[C@@H]2CO)cc1
C[C@@H]1CCCCO[C@H](CN(C)C(=O)Nc2ccc(F)cc2)[C@@H](C)CN([C@H](C)CO)C(=O)c2cc(NC(=O)C3CCCCC3)ccc2O1

From the antibiotic and cytotoxicity screens of Wong et al. (2023)
